# Measurements from PMC4336329 (PLoS ONE, 2015).
# Out of some 310,000 compounds screened, about 2,200 (0.71%) showed an effect of 50% or more. Effects have a minus sign here. The list shows a part of the results.
# Molecular target: human ether-à-go-go-related gene (hERG) potassium channel (human, UniProt Q12809)
# Test: primary screen, population patch clamp on CHO cells stably expressing hERG
# Sequence of human ether-à-go-go-related gene (hERG) potassium channel (Q12809 whole entry, looked up): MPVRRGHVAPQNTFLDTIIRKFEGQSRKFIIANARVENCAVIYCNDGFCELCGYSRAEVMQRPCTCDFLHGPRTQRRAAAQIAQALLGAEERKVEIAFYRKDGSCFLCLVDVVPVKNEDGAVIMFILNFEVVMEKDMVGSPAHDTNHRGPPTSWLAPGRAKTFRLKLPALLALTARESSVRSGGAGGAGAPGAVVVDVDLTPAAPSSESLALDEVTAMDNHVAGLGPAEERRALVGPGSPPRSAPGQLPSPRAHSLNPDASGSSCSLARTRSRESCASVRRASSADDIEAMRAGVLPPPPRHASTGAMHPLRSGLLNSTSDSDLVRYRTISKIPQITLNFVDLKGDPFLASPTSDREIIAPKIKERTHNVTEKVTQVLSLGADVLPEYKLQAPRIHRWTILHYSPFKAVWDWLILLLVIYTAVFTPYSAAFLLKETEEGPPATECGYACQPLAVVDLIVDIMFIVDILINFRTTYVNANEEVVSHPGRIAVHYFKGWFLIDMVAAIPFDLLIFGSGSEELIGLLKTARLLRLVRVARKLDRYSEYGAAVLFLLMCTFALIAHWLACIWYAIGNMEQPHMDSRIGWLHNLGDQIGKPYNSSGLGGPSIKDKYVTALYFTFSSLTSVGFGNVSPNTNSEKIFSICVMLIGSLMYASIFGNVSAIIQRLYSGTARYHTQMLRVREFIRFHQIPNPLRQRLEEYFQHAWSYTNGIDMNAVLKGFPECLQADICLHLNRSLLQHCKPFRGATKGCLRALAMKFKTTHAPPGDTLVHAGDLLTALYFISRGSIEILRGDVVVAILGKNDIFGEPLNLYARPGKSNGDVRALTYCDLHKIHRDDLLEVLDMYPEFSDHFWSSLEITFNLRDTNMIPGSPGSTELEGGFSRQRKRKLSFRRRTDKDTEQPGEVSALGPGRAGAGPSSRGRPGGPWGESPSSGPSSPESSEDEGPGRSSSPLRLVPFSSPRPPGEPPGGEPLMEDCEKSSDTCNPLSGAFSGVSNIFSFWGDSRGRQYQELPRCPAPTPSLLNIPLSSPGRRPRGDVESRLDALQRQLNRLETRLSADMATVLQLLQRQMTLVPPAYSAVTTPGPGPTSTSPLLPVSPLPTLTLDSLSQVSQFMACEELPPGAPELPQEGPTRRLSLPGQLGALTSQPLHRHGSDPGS
row,SMILES,"hERG current change (%, negative = inhibition) at 1uM"
1,Cc1cc(C)n(-c2ccc([N+](=O)[O-])cc2-c2nn[nH]n2)n1,14.1%
2,CC(C)CNC1CCS(=O)(=O)C1.Cl (centres unmarked),9.24%
3,COc1ccc([N+](=O)[O-])cc1NC(=O)COC(=O)c1ccc(O)cc1,8.66%
4,Cc1c(N2C(=O)/C(=C\C3CC=CCC3)SC2=S)c(=O)n(-c2ccccc2)n1C (centres unmarked),14.5%
5,CCN(CC)C(=O)CSC1=Nc2ccccc2C2=NC(c3ccccc3)C(=O)N12 (centres unmarked),-18.3%
6,CCC1CCc2c(c3ccccc3[nH]c2=O)O1 (centres unmarked),5.26%
7,COc1ccc(C(=O)NC(=S)NCc2ccco2)cc1OC,-2.68%
8,CN(C)CCOC(c1ccc(Cl)cc1)c1ccccn1.O=C(O)/C=C/C(=O)O (centres unmarked),-3.6%
9,C=CCn1c(SCC(=O)Nc2cc(C)ccc2OC)nnc1-c1ccco1,-23%
10,C/C(=N\Nc1cccc([N+](=O)[O-])c1)c1cc2ccccc2o1,6.28%
11,Cc1nc2ccccc2n1CC(=O)NCCN1CCOCC1,2.85%
12,O=C(Cn1nnc(-c2cccs2)n1)Nc1ccccc1C(F)(F)F,5.93%
13,COc1ccc2oc(C(=O)Nc3nccs3)c(C)c2c1,14.7%
14,CCN(CC)S(=O)(=O)c1ccc(C)c(NC(=O)CNCCN(C(C)C)C(C)C)c1.O=C(O)C(=O)O,-66.5%
15,COc1ccc(CN2CCn3ncc(C(=O)Nc4cc(C)cc(C)c4)c3C2=O)cc1,10.7%
16,CCOC(=O)Cc1csc(NS(=O)(=O)c2ccc(SC)cc2)n1,15.1%
17,CC1(C)Cc2c(C#N)c(OCC(=O)c3ccc(Cl)cc3)nc(-c3ccoc3)c2CO1,12.5%
18,Nc1nn(-c2ccccc2Cl)cc1-c1nn[nH]n1,17.9%
19,COc1ccc(CCNC(=S)N2CCN(S(=O)(=O)c3ccc(Cl)cc3)CC2)cc1,14.3%
20,C=CCn1c(SCC(=O)NCc2ccc3c(c2)OCO3)nnc1C1COc2ccccc2O1 (centres unmarked),8.53%
21,CC(C)c1ccc(NC2CCCN(C(=O)c3cnn(C(C)C)c3)C2)cc1 (centres unmarked),3.48%
22,COc1ccc(CC(=O)Nc2ccc(-c3nnc(-c4ccccc4)o3)cc2)cc1,-5.58%
23,C#CCOc1ccc(Br)cc1C(c1c(C)[nH][nH]c1=O)c1c(C)[nH][nH]c1=O,11.6%

row,SMILES,"hERG current change (%, negative = inhibition) at 1uM"
1,Cc1ccc(C)c2[nH]c(=O)c(CCNC(=O)CC(C)(C)C)cc12,13%
2,Cc1nc2c(s1)sc1ccccc12,6.36%
3,CC(C)CCN1C(=O)c2ccc(C(=O)OCC(=O)N(C)C3CCS(=O)(=O)C3)cc2C1=O (centres unmarked),6.71%
4,Cc1ccc(Cn2cc(C=O)c3ccccc32)cc1,9.93%
5,C/C(=N\NC(=O)c1cc(C(C)C)[nH]n1)c1ccncc1,14.6%
6,Cc1onc(-c2c(F)cccc2Cl)c1C(=O)NC1CC1,-0.826%
7,O=C(N/N=C/c1cnc2ccccc2n1)c1cccc(F)c1,2.3%
8,Cc1ccc(-c2csc(NC(=O)c3ccno3)n2)cc1,25%
9,O=C(NCc1n[nH]c(=S)n1-c1ccc(Br)cc1)c1ccc(S(=O)(=O)N2CCCCC2)cc1,14.1%
10,Clc1ncccc1OCc1ccccc1,4.98%
11,O=S(=O)(NCc1cccs1)c1cccc2cccnc12,-9.96%
12,O=C(O)CN1C(=O)/C(=C\c2cc(Br)ccc2OCc2ccc([N+](=O)[O-])cc2)SC1=S,11%
13,CCc1ccc(S(=O)(=O)c2cn(C)c3cc(OC)c(OC)cc3c2=O)cc1,4.22%
14,CCn1nc(C(=O)OCC(=O)N(CC(C)C)c2c(N)n(Cc3ccccc3)c(=O)[nH]c2=O)c2ccccc2c1=O,14.2%
15,CC(C)COC(=O)N1CCN(S(=O)(=O)c2ccc3c(c2)CCC3)CC1,13.3%
16,Cc1nnc2sc(SCc3ccccc3)nn2c1=O,16.6%
17,O=C(NCCC1=CCCCC1)C1CCC(CNc2nc(=S)[nH]c3ccccc23)CC1 (centres unmarked),11.9%
18,O=C(Nc1sc2c(c1C(=O)O)CCCC2)c1ccccc1Cl,9.19%
19,COc1ccc(CC(=O)Nc2ccc(-c3noc(-c4cccc(OC)c4)n3)cc2)cc1,0.154%
20,N#CNC(=Nc1cccc(F)c1)SCc1ccccc1F,5.48%
21,O=C(O)CSc1nc(-c2cccs2)cc(C(F)(F)F)n1,16.9%
22,COc1c(N2CCN[C@H](C)C2)c(F)cc2c(=O)c(C(=O)O)cn(C3CC3)c12,13.5%
23,c1ccc(CNCc2ccc3c(c2)OCO3)nc1,11%

row,SMILES,"hERG current change (%, negative = inhibition) at 1uM"
1,O=C(NCCOc1ccc(Cl)cc1)c1ccc2ccccc2n1,7.95%
2,CCc1ccc(-n2cnc3cc(C(=O)NCC(OC)OC)ccc32)cc1,-2.54%
3,COn1c(=O)c(-c2ccccc2)[n+]([O-])c2ccccc21,11%
4,CCOC(=O)NNC(=O)c1ccc(Cl)cc1,1.99%
5,Fc1ccc(/C=N/Nc2nc(-c3cccnc3)nc3ccccc23)cc1,-0.464%
6,COC(=O)c1sccc1-n1cccc1C(=O)N1CCOCC1,-11.6%
7,COC(=O)c1c(N)c(C#N)c(C)n1-c1ccccc1,10.9%
8,Cc1cc(C)c(NC(=O)C2CCCN2CCC(C)C)c(C)c1 (centres unmarked),2.06%
9,O=C(NN1c2ccccc2CCc2ccccc21)c1ccccc1Br,16.7%
10,CCCCC(=O)Nc1ccc(NC(=S)NC(=O)CC)cc1OC,15.8%
11,CCOC(=O)CC(=O)CSc1nc(-c2ccccc2)cc(-c2ccccc2)c1C#N,10.2%
12,CCOC(=O)c1sc(NC(=O)C2CCC2)cc1C,10.3%
13,Cc1ccc2nc(SCc3ccc([N+](=O)[O-])cc3)[nH]c2c1,-37.3%
14,Cc1ccc(NC(=O)C2CCN(S(=O)(=O)c3ccc4c(c3)CC(C)N4C(=O)C3CCC3)CC2)nc1 (centres unmarked),15.3%
15,Cc1[nH]c2ccccc2c1CCNC(=O)CCC(=O)c1ccccc1,1.75%
16,CCC(=O)n1nc(-c2ccco2)nc1N,14.5%
17,CC(=O)c1ccc2c3c(ccc(O)c13)CC2,11.5%
18,CCn1c(C)cc(/C=C2\SC(=O)N(CC(=O)Nc3ccc(C)c(C)c3)C2=O)c1C,-7.72%
19,Cc1cccc(N2CN=c3s/c(=C\c4ccccn4)c(=O)n3C2)c1,12%
20,Cn1nnc2cc(C(=O)NCCC3=CCCCC3)ccc21,2.72%
21,CCCCOC(=O)c1ccc(-c2ccc(/C=N/NC(=S)NCC)o2)cc1,10.6%
22,Cc1ccc(NC(=O)C(c2ccccc2)N2CCN(C(=O)c3ccco3)CC2)cc1 (centres unmarked),4.12%
23,Cc1cccc(NS(=O)(=O)c2cccc3nonc23)c1,12.6%

row,SMILES,"hERG current change (%, negative = inhibition) at 1uM"
1,CN(c1ccccc1)c1cc(Br)nc(Br)c1,6.4%
2,COc1cc(OC)cc(-c2cc3ncccc3cn2)c1,1.45%
3,COC(=O)c1cc2cc(Cl)ccc2nc1SC,12.9%
4,CC(=O)Nc1ccc(NC(=O)CSc2nnc3ccc(-c4cccnc4)nn23)cc1,20.3%
5,CCOP(=O)(c1ccc(N(C)C)cc1)C(O)c1cccnc1 (centres unmarked),-2.34%
6,CC12CCC(C(=O)NCc3ccc(F)cc3)(OC1=O)C2(C)C (centres unmarked),16.2%
7,CC(=O)Nc1ccccc1C(=O)OCC(=O)c1ccccc1Cl,-0.459%
8,Cc1nn(C)c(C(=O)N2CCc3ccccc32)c1Cl,0.757%
9,CS(=O)(=O)N1CCN(c2ccccc2NC(=S)NC(=O)c2cccs2)CC1,16.6%
10,O=C(Oc1ccccc1)c1cc2ccccc2o1,11.6%
11,CN(C)C/C=C/C(O)(c1ccccc1)c1ccccc1,-0.919%
12,Cn1cc([N+](=O)[O-])c(C(=O)N/N=C/c2ccncc2)n1,11.6%
13,O=C(NCCCc1ccccc1)c1ccc(F)cc1,7.61%
14,Cc1nc2ccccc2c(=O)n1/N=C/c1ccccn1,7.85%
15,CCOC(=O)C1=C(C)N=C2SC(C(=O)OC)=CC(=O)N2C1c1ccc(OC)cc1 (centres unmarked),-1.71%
16,O=C(CN1CCN(C(=O)C2CCCO2)CC1)Nc1ccc(Cl)cc1 (centres unmarked),2.09%
17,CCOn1c(=O)c(-c2ccc(Br)cc2)[n+]([O-])c2ccccc21,13.1%
18,CCOc1cc(C(=S)N2CCOCC2)ccc1OC,13.9%
19,Cc1oc(C(C)(C)C)cc1C(=O)Nc1ccc(C(=O)O)cc1,1.99%
20,Cc1ccc(N2CC(C(=O)Nc3cc(C)ccc3F)CC2=O)cc1 (centres unmarked),10.8%
21,O=C(Cc1ccc([N+](=O)[O-])cc1)NCc1ccncc1,12.6%
22,COc1ccc2c(c1OC)c(=O)n1c3ccc(OC(C)C(=O)NCCN4CCOCC4)cc3c3ccnc2c31 (centres unmarked),7.12%
23,Cc1cccc(CN2C(=O)[C@H]3Cc4c([nH]c5ccccc45)C(C)(C)N3C2=O)c1,6.67%
